Measurements from PubChem BioAssay AID651820 (National Center for Advancing Translational Sciences (NCATS), 2012).
Out of some 340,000 compounds screened, about 12,000 (3.5%) were called active. The inconclusive results got no clear call from the source; some entries with a clear call stand among them for comparison. Calls come from the whole dose curve; as a rule, active = well fitted inhibition curve with a large enough effect; inconclusive = small, poorly fitted or top-dose-only effect, or another doubt; inactive = no such curve, though single readings can be large or run the other way. Potencies of inconclusive entries are left out as doubtful fits.

Test: qHTS Assay for Inhibitors of Hepatitis C Virus (HCV)
Conditions: Huh7.5.1 HCVcc-Cre (HCVcc is cell-culture hepatitis C virus) infection, luciferase reporter, 44 h; activity change, negative = inhibition: at 41.8 µM (top of the series) unless noted
Summary of the method: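 Luciferase read-out (15 sec integration) after a 15 min room-temperature substrate step quantifies HCVcc-Cre infection. Cells, 1,000 per well, had compound added 4 h post-plating, then virus at ~0.5 moi, and were cultured 44 h.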
% is set by controls: 0 for no effect and ±100 for the full control effect; potency is the fitted concentration of half-maximal effect; tags give direction and shape of the fitted curve.

Row | Structure (SMILES) | Potency | activity change, negative = inhibition
1 | COc1ccc(S(=O)(=O)N2CCCCCC2)cc1C(=O)OCC(=O)NC(C)(C)C | inconclusive [inhibitor, single point] | –
2 | Cc1ccc(C(=O)NCCCN2CCOCC2)cc1Cl | inactive | –
3 | Cc1cc(C(=O)COC(=O)c2ccc(O)cc2)c(C)n1-c1ccccc1F | inconclusive [inhibitor, partial curve] | –
4 | Cc1ccc(N(CCCCN2C(=O)c3ccccc3C2=O)C(=O)c2ccc(Cl)s2)cc1 | inconclusive [inhibitor, partial curve] | –
5 | CCOc1ccc(S(N)(=O)=O)cc1-c1nc2c(C(C)(C)C)nn(C)c2c(=O)[nH]1 | inconclusive [inhibitor, single point] | –
6 | O=C(CSc1nnnn1-c1ccc(F)cc1)NCc1cccs1 | inactive | –
7 | O=C(Nc1ccccc1)c1cnc2n(c1=O)CCS2 | inactive | –
8 | Cc1ccc(Cn2nnnc2CN2CCC(n3nnc4cc(C(F)(F)F)ccc43)CC2)cc1 | inconclusive [inhibitor, single point] | –
9 | COc1ccc(OC)c2[nH]c(C(=O)N/N=C/c3ccccc3O)cc12 | active: 3.16 µM | –
10 | Cc1cccc(-c2noc(CN(C(=O)C(c3ccccc3)c3ccccc3)C(C)C)n2)c1 | inconclusive [inhibitor, single point] | –
11 | CCn1nc([N+](=O)[O-])c(C(C#N)c2nc3cc(C(F)(F)F)ccc3s2)c(Cl)c1=O (stereo not given) | active: 11.2 µM | –
12 | Cc1ccccc1NC(=S)N1CCCC1 | inactive | –
13 | NS(=O)(=O)c1ccc(CCNC(=O)CCCOc2ccccc2)cc1 | inactive | –
14 | O=C(Nc1ccc(NC(=O)c2ccco2)c(Cl)c1)c1ccc2c(c1)OCCO2 | inconclusive [inhibitor, partial curve, poor fit] | –
15 | COc1ccc(CCNS(=O)(=O)c2ccc(N3CCCC3=O)cc2)cc1 | inconclusive [inhibitor, single point] | –
16 | CC(=O)c1c(C)[nH]c(C(=O)OCC(=O)Nc2cc(S(=O)(=O)N3CCCC3)ccc2Cl)c1C | active: 1.41 µM | –
17 | COc1ccc(OCCN2CCN(S(=O)(=O)c3ccccc3C(F)(F)F)CC2)cc1 | inconclusive [inhibitor, single point] | –
18 | CSc1ccc(CNCCCN(C)C)cc1 | active: 5.01 µM | –
19 | Cc1c(C(=O)c2no[n+]([O-])c2C(=O)c2cnn(C)c2C)cnn1C | inconclusive [inhibitor, single point] | –
20 | O=C1C=CC(=O)N1CCCCCCN1C(=O)C=CC1=O | inconclusive [inhibitor, single point] | –
21 | Cc1sc(NC(=O)CN2C(=O)NC3(CCCC3)C2=O)nc1-c1ccc(F)cc1 | inconclusive [inhibitor, single point] | –
22 | COc1cccc(N2CCN(C(=O)CCc3nnc4ccc(N5CCOCC5)nn34)CC2)c1 | inactive | –
23 | O=S(=O)(NCc1cccs1)c1ccc(Br)cc1 | inactive | –
24 | O=C(COc1cccc2ccccc12)N/N=C/c1ccc(Sc2nc3ccccc3s2)o1 | inconclusive [inhibitor, single point] | –

Row | Structure (SMILES) | Potency | activity change, negative = inhibition
25 | COc1cc(OC)cc(-c2c(-c3ccc(F)cc3)c3cc(-c4cnc(OC)nc4)ccc3n2C)c1 | inconclusive [inhibitor, single point] | –
26 | O=C(c1cc2ccccc2o1)N1CCN(S(=O)(=O)c2cccs2)CC1 | inconclusive [inhibitor, single point] | –
27 | Cc1cc2oc(=O)cc(CN(C)Cc3ccccc3Cl)c2cc1C | inconclusive [inhibitor, partial curve] | –
28 | O=C(CCNS(=O)(=O)c1ccc2ccccc2c1)NCCOc1ccccc1 | inconclusive [inhibitor, partial curve] | –
29 | Cc1cc(OCC(=O)Nc2ccc(CN3CCOCC3)cc2)ccc1Cl | inconclusive [inhibitor, single point] | –
30 | CCCCn1c(=NC(=O)c2ccco2)c(C(=O)OCC)cc2c(=O)n3ccccc3nc21 | inconclusive [inhibitor, full curve] | –
31 | Cc1ccc(C(C)(C)C)cc1S(=O)(=O)N1CCC(C(=O)N2CCN(c3ccc(O)cc3)CC2)CC1 | inconclusive [inhibitor, single point] | –
32 | NC(=O)C1=C[C@@H](C2CCCCC2)C[C@@H](OCc2ccc(CO)cc2)O1 | inconclusive [inhibitor, single point] | –
33 | O=C(CSc1cn(Cc2ccccc2)c2ccccc12)N1CCOCC1 | inactive | –
34 | Cc1ccc(S(=O)(=O)NCc2ccccc2)cc1C(=O)N(C)Cc1ccc(F)cc1 | inconclusive [inhibitor, single point] | –
35 | CC(C)OC(=O)c1c(N)sc2c1CCCC2 | inactive | –
36 | Cc1ccc(S(=O)(=O)N2CCN(c3ncnc4ccccc34)CC2)cc1 | active: 8.91 µM | –
37 | CCn1c(P(C)(=O)O)nc2cc(NC(=O)c3ccccc3F)ccc21 | inactive | –
38 | Cc1ccc(CNC(=O)C(=O)NCC2CCCN2S(=O)(=O)c2cc(C)ccc2C)cc1 (stereo not given) | inconclusive [inhibitor, single point] | –
39 | Nc1ccc(N(c2ccccc2)c2ccc(N)cc2)cc1 | active: 10 µM | –
40 | CN1CCN(C(=O)CCN2C(=O)c3ccccc3S2(=O)=O)CC1 | inactive | –
41 | CCN(CC)c1c2c(c(C#N)c3nc4ccccc4n13)CCC2 | inconclusive [inhibitor, partial curve, poor fit] | –
42 | CC(=O)OCC1=C(C(=O)O)N2C(=O)C(NC(=O)c3ccc(COc4c(C)cccc4Cl)o3)C2SC1 (stereo not given) | inactive | –
43 | COc1cc(/C=C2/C(=O)N(C)C(=S)N2C)ccc1OCc1cccc(F)c1 | inconclusive [inhibitor, single point] | –
44 | COc1cccc(NC(=O)Nc2ccc(C(C)(C)C)cc2)c1 | inconclusive [inhibitor, single point] | –
45 | COc1ccc(NC(=O)CSc2nc(C)cs2)c([N+](=O)[O-])c1 | inactive | –
46 | COc1nc(OC)nc(N2CCCCCC2)n1 | inconclusive [inhibitor, full curve, poor fit] | –
47 | COCOc1cc(O)c(C(=O)/C=C/c2ccc(OCOC)c(OCOC)c2)c(OCOC)c1 | active: 7.94 µM | –
48 | COC(=O)c1cc(CSc2nc3ccccc3[nH]2)oc1C | inconclusive [inhibitor, single point] | –

Row | Structure (SMILES) | Potency | activity change, negative = inhibition
49 | O=C1c2cccc(OCC(=O)N3CCCc4ccccc43)c2CCN1Cc1ccc(F)cc1 | inconclusive [inhibitor, single point] | –
50 | CN(CC(=O)Nc1ccccc1-c1ccccc1)C1CCCCC1 | inconclusive [inhibitor, single point] | –
51 | O=C(CNc1cc(S(=O)(=O)N2CCOCC2)ccc1NCC1CCCO1)Nc1ccc(C(F)(F)F)cc1 (stereo not given) | inconclusive [inhibitor, partial curve, poor fit] | –
52 | COc1ccc(OCC(=O)Nc2cccc(-c3nc4ccccc4o3)c2)cc1 | active: 10 µM | –
53 | COc1ccc(NC(=O)c2cc(CC(C)C)nc3ccccc23)cc1 | inconclusive [inhibitor, partial curve] | –
54 | CCN(CC)CCNC(=O)c1cc2c(s1)-c1ccccc1SC2 | active: 11.2 µM | –
55 | O=C(C(c1ccccc1)c1ccccc1)N1CCN(CC(O)COc2ccccc2)CC1 (stereo not given) | inconclusive [inhibitor, single point] | –
56 | CCCn1c(SCC(=O)Nc2ccccc2C(=O)OC)nc2c1c(=O)n(C)c(=O)n2C | inconclusive [inhibitor, single point] | –
57 | CCN(CC)C(=O)CN(c1cc(Cl)ccc1OC)S(=O)(=O)c1ccc(C)c([N+](=O)[O-])c1 | inconclusive [inhibitor, single point] | –
58 | CN(C)c1cccc2c1c(NC(=O)Nc1ccc(F)cc1F)nn2C | inconclusive [inhibitor, single point] | –
59 | N#Cc1cc(C(=O)c2cc(Br)ccc2O)cn(C2CC2)c1=O | inactive | –
60 | O=C(C=Cc1ccc2c(c1)OCO2)c1ccccc1 | inactive | –
61 | CCOc1cc(-c2nc3cc(C)ccn3c2NCC2CCCO2)ccc1O (stereo not given) | inconclusive [inhibitor, partial curve] | –
62 | O=C(c1cnn2c(C(F)F)cc(-c3ccccc3)nc12)N1CCN(Cc2ccc3c(c2)OCO3)CC1 | active: 11.2 µM | –
63 | Cc1cc(C)n2ncnc2n1 | inconclusive [inhibitor, single point] | –
64 | Cc1ccccc1-c1cc(C(=O)Nc2sc(C)c(C)c2C(N)=O)c2ccccc2n1 | active: 4.47 µM | –
65 | Cc1ccc(-c2nnc(-c3ccncc3)n2-c2ccc(C)cc2)cc1 | inconclusive [inhibitor, partial curve] | –
66 | Cc1cc(C)c(C)c(OCCCCN2CCCCC2)c1 | inconclusive [inhibitor, single point] | –
67 | CN(c1ccccc1)S(=O)(=O)c1ccc(Cl)c(C(=O)Nc2ccccc2N2CCOCC2)c1 | active: 11.2 µM | –
68 | COC(=O)CCCC1=CC2=CC(=O)C(C)(OC(=O)c3cccs3)C(=O)C2=CN1Cc1ccccc1 (stereo not given) | – | inactive: -11.2% [at 8.37 µM]
69 | COc1ccccc1-c1sc2ccccc2c1-c1ccc2c(c1)OCCO2 | inconclusive [inhibitor, partial curve] | –
70 | COc1ccc(N2CCN(C3CCCCC3NS(=O)(=O)c3ccc(Cl)cc3)CC2)cc1 (stereo not given) | inconclusive [inhibitor, partial curve] | –
